# Over roughly 110,000 compounds, “z-score” has its median near -0.1; the highest 2% begin near 2. The list shows a part of the results. Calls of active or inactive are those of the source.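 How the source made its calls: active means z-score in the third read window above 3 or below -3; inactive means the rest.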
# Target: Metabotropic glutamate receptor 8 (Rattus norvegicus) (UniProt P70579)
# Experiment: mGluR8 Gi/Go-coupled signaling modulation – cell-based, rat, thallium flux, HTS, primary screen (AID 488969)
# Details: HEK293 rat mGluR8, GIRK (G protein-gated inwardly rectifying potassium channel) thallium flux, FluoZin2; at 10 µM; stronger effect = higher value; submaximal glutamate (EC20) added with thallium
# UniProt P70579, sequence (P70579 whole entry, looked up): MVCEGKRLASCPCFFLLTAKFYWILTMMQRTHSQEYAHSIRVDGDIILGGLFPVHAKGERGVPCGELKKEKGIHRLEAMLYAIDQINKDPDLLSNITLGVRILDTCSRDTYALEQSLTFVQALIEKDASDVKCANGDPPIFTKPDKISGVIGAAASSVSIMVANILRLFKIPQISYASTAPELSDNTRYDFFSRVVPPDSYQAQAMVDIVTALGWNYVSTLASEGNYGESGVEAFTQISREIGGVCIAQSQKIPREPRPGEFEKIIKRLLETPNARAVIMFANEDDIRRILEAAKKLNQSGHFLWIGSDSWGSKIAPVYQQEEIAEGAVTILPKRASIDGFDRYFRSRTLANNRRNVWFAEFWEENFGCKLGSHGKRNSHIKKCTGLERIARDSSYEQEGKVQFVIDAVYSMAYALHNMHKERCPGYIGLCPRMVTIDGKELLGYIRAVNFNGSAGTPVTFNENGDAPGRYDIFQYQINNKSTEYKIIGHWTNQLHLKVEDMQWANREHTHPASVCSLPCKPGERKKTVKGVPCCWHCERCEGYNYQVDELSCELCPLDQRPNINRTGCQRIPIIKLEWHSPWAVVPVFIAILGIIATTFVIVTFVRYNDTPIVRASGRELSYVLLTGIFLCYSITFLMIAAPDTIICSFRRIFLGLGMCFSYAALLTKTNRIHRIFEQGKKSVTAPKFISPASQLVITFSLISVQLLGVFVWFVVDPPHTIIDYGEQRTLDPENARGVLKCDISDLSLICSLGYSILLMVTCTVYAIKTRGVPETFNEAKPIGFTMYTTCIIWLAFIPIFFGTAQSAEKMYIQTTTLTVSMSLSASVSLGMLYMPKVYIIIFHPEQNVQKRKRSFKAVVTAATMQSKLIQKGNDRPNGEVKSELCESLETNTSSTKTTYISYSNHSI
row,Compound,z-score
1,COC(=O)CC1COc2ccccc2N1C(=O)c1cccc(Cl)c1 (stereo unspecified),-0.076
2,Cc1cc(C=O)c(C)n1-c1ccc(Oc2ccc([N+](=O)[O-])cn2)cc1,-0.148
3,COC(=O)c1[nH]c2cccc(OC)c2c1NC(=O)CN1CCOCC1,0.382
4,O=C(NCc1cccs1)C(=O)NCC1OCCCN1S(=O)(=O)c1ccccc1 (stereo unspecified),-0.219
5,Cc1oc2ccc(O)cc2c1C(=O)c1ccc(Cl)cc1,-0.696
6,COc1ccc(N(C(=O)CNC(=O)c2ccco2)C(C(=O)NC2CCCCC2)c2ccco2)cc1 (stereo unspecified),0.332
7,O=c1cc(NCc2ccccc2)c2ccccc2o1,-0.0485
8,O=C(NCCc1ccccn1)c1ccc(COc2ccccc2)o1,-0.191
9,COc1ccc(NC(=S)N(CCc2nc3cc(C)c(C)cc3[nH]2)Cc2cccnc2)cc1,0.0659
10,Cc1ccc(/C=C/S(=O)(=O)N2CCC(C(=O)O)CC2)cc1,-0.628
11,CN1C(=O)C(O)(C2OC(C)(C)CCC2=O)c2ccccc21 (stereo unspecified),-0.0799
12,CCN(CC)S(=O)(=O)c1ccc(N2CCCC2)c(NS(=O)(=O)c2ccccc2)c1,-0.405
13,CCC(=O)Nc1ccc(Cl)c(NC(=O)c2ccc([N+](=O)[O-])cc2)c1,-0.0166
14,CCOc1ccc(Cl)cc1S(=O)(=O)n1cnc2ccccc21,0.0674
15,COC(=O)CC1=C(C(=O)OC)C(c2ccc3c(c2Cl)OCO3)C(C#N)=C(N)O1 (stereo unspecified),-1.19
16,COc1cc2c(cc1OC)CN(Cc1nc3ccsc3c(=O)[nH]1)CC2,-0.379
17,COc1ccccc1NC(=O)Nc1ccc2c(c1)nnn2C,-0.194
18,N#CC1=C(S)N(c2ccccc2)C(c2ccc(-c3ccccc3Cl)o2)NC1=O (stereo unspecified),-0.702
19,Nc1c(Cl)cc2c(c1Oc1ccccc1)C(=O)c1ccccc1C2=O,-1.52
20,COC(=O)c1ccc(N2C(=O)c3cc(N4CCOCC4)c([N+](=O)[O-])cc3C2=O)cc1,-0.238
21,CCCCC(=O)NC(NC(=O)CCCC)c1ccc(OCC(C)C)c(OC)c1,-0.277
22,O=C(COC(=O)CCc1ccc(S(=O)(=O)N2CCOCC2)cc1)Nc1ncc(C(F)(F)F)cc1Cl,-0.00567
23,O=C(NC(=S)Nc1nc2ccccc2s1)c1ccco1,active: 8.72
24,NS(=O)(=O)c1ccc(N2N=C(c3ccccc3)CC2c2ccc(F)cc2)cc1 (stereo unspecified),-0.361

row,Compound,z-score
1,COc1ccc(CCNc2nnc(C)c(=O)[nH]2)cc1OC,0.279
2,CCOC(=O)CC(NS(=O)(=O)c1ccc(NC(C)=O)cc1)c1ccc(OCC)cc1 (stereo unspecified),1.12
3,Cc1ccc(OCC(=O)NN=C2c3ccccc3-c3ccccc32)cc1,-0.617
4,CC(=O)c1c(C)[nH]c(C(=O)N2CCN(c3ccc(F)cc3)CC2)c1C,-0.0203
5,NNC(=O)c1cc2ccccc2cc1O,0.846
6,O=C(CSc1ccc2nnc(-c3ccccc3)n2n1)N1CCN(c2ccccc2)CC1,-0.868
7,CCCCNC(=S)NNC(=O)CCn1nc(C)c(Br)c1C,0.0745
8,Cc1cc(NC(=O)COC(=O)c2cccc(S(=O)(=O)N3CCOCC3)c2)no1,0.324
9,Cc1cc(C)c(Nc2cc(S(=O)(=O)O)c(N)c3c2C(=O)c2ccccc2C3=O)c(C)c1,-0.54
10,S=C(NCCCn1ccnc1)NC1CCCCC1,0.091
11,CCc1ccccc1NC(=O)c1cc(-c2cccc(O)c2)on1,0.482
12,Cc1cc(C)nc(NC(=NCCc2c[nH]c3ccccc23)NC(=O)Nc2ccccc2)n1,-0.584
13,CCCCOc1ccc(C(=O)CCNC(C(=O)O)C(C)CC)cc1 (stereo unspecified),0.301
14,O=C1NC2(CCCC2)N=C1c1ccc(F)cc1,-0.119
15,CC1CCN(C(=O)CSc2nncn2C)CC1,0.375
16,O=C(NCc1cccnc1)c1ccc(CN2CCc3ccccc3C2)cc1,-0.0622
17,CCN(CC)C(=O)COc1ccc2oc(C)c(C(=O)OC)c2c1,active: 3.23
18,CCCCN1C(=O)c2ccccc2C1C(=O)NC1CCCC1 (stereo unspecified),active: 3.2
19,O=C(Nc1cccn(Cc2c(Cl)cccc2Cl)c1=O)c1ccccc1Cl,-0.112
20,Cc1cc(Cl)ccc1NC(=O)CSc1nnc(Cc2cccs2)n1Cc1ccco1,-0.988
21,Cc1nc(CN2CCN(C(=O)c3ccc(C(C)(C)C)cc3)CC2)cs1,0.36
22,Cc1cccc(NC(=O)c2ccc(OC3CSC3)cc2)c1,-0.335
23,COc1ccc(C2N(c3ccc(OC)cc3)C(=O)C3CCCN32)cc1 (stereo unspecified),-0.229
24,O=C1NN(c2ccccc2)C(=O)/C1=C/c1cccs1,-0.409

row,Compound,z-score
1,Cc1nc(Nc2ccc(F)cc2)[nH]c(=O)c1CCC(C)C,-0.00139
2,CC(C)(Oc1ccc(Cl)cc1)C(=O)Nc1cccnc1,0.239
3,CC/C(=N\NS(C)(=O)=O)c1ccccc1,0.273
4,CC[n+]1c(/C=C(\C)Nc2ccccc2)sc2ccccc21,-0.486
5,Cc1ccc2nc(NCCCO)nc(-c3ccccc3)c2c1,-0.775
6,COc1ccc(C)cc1S(=O)(=O)N1CCN(c2cccc(C(F)(F)F)c2)CC1,-0.488
7,Cc1c(Cl)cccc1Nc1nc(N)nc(CSc2ncccn2)n1,-0.291
8,C1=C(c2ccccc2)Nc2nnnn2C1c1cccs1 (stereo unspecified),-0.104
9,Cc1cccc(NC(=O)CSc2nnc(-c3ccc(S(=O)(=O)N4CCOCC4)cc3)n2C)c1,1.74
10,O=C(Cn1cnc2c(nnn2Cc2ccccc2F)c1=O)OCc1ccccc1,-1.07
11,Cc1nn(CCc2n[nH]c(=S)n2-c2ccc(F)c(Cl)c2)c(C)c1[N+](=O)[O-],-0.0853
12,CCCS(=O)(=O)N1CCN(C(=O)CCC2CCCC2)CC1,0.237
13,O=C(c1cnc2n(c1=O)CCS2)N1CCCc2ccccc21,-0.0995
14,CC(C)COC(=O)Nc1nnc(SCc2ccccc2F)s1,-0.083
15,CC(C)NC(=S)N1CCN(S(C)(=O)=O)CC1,-0.252
16,COc1ccc(NC2=C(c3ccc(OC)cc3)C(=O)c3ccccc32)cc1,-0.135
17,CCCC(C(=O)NC1CCCCC1)N(CC1CCCO1)C(=O)CNS(=O)(=O)c1ccc(F)cc1 (stereo unspecified),-0.514
18,Nc1nc(C2C(=O)CCCC2=O)cs1,0.841
19,CC(=O)COC(=O)CCc1nc2ccccc2[nH]c1=O,-0.286
20,Cc1nn(-c2ccccc2)c(C)c1C(=O)OCC(=O)NCc1ccco1,-1.38
21,Fc1cccc(Cl)c1CSc1nnnn1-c1ccc2c(c1)OCO2,1.06
22,CS(=O)(=O)N1N=C(c2ccccc2)CC1c1ccc2nccnc2c1 (stereo unspecified),0.159
23,CS(=O)(=O)N1CCN(C(=O)c2c(F)cccc2F)CC1,0.029
